{"source": "PubChem BioAssay AID1479", "about": "(National Center for Advancing Translational Sciences (NCATS), 2009)", "note": "The whole screen tested about 280,000 compounds, of which about 820 (0.29%) were called active. Not shown: some 1% with an inconclusive outcome. The call rests on the fitted dose curve; in most records, active means well fitted curve in either direction with a large enough effect; inconclusive means small, poorly fitted or top-dose-only effect; inactive means flat fitted curve, though single readings scatter. This is a selection; strong and weak results do not stand in their true shares. On the % scale 0 is the no-effect control and ±100 the full control effect; potency means the concentration at half of the fitted maximal effect; tags describe the fitted curve by direction and shape or compound fluorescence and quenching.", "data": [{"experiment": "Total Fluorescence Counterscreen for Inhibitors of the Interaction of Thyroid Hormone Receptor and Steroid Receptor Coregulator 2", "settings": "TRb/SRC2 Texas Red total fluorescence interference; series mostly up to 106 µM; fluorescence change, negative = quenching: at the top concentration", "method_in_brief": "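Human TRb ligand-binding domain at 0.6 uM with 20 nM Texas Red SRC2 peptide in Tris buffer containing 1 uM T3 and 5% DMSO, incubated with compound 5 h at ambient temperature. Total fluorescence (555/632 nm) calculated as parallel + 2 × perpendicular.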", "values": [{"smiles": "O=c1cc(-c2ccccc2Cl)oc2c(NS(=O)(=O)c3cc(Cl)cc(Cl)c3O)ccc(O)c12", "fluorescence change, negative = quenching": "inactive: -16.6%"}, {"smiles": "COc1ccc(CNC(=O)C2CCN(C(=O)N3CCOc4ccc(C)cc43)CC2)cc1", "fluorescence change, negative = quenching": "inactive: -1.11%"}, {"smiles": "COC(=O)[C@@H]1[C@@H]2C[C@H]3c4[nH]c5cc(OC)ccc5c4CCN3C[C@@H]2C[C@H](OC(=O)c2cc(OC)c(OC)c(OC)c2)[C@H]1OC", "fluorescence change, negative = quenching": "inactive: 8.82% [at 53 µM]"}, {"smiles": "O=C(O)CCCCC1CCSS1", "note": "(stereo not given)", "Potency": "inactive"}, {"smiles": "CC[C@@H]1/C=C(\\C)C[C@H](C)C[C@H](OC)[C@H]2O[C@@](O)(C(=O)C(=O)N3CCCC[C@H]3C(=O)O[C@H](/C(C)=C/[C@@H]3CC[C@@H](O)[C@H](OC)C3)[C@H](C)[C@@H](O)CC1=O)[C@H](C)C[C@@H]2OC", "fluorescence change, negative = quenching": "inactive: -5.18%"}, {"smiles": "COCCNC(=O)CCSc1nc(-c2ccc(OC)cc2)cc(C(F)(F)F)n1", "fluorescence change, negative = quenching": "inactive: 0.633%"}, {"smiles": "OC[C@H]1NC[C@H](O)[C@@H](O)[C@H]1O", "fluorescence change, negative = quenching": "inactive: -2.38%"}, {"smiles": "COc1cccc2c1C(=O)c1c(O)c3c(c(O)c1C2=O)C[C@](O)(C(=O)CO)C[C@@H]3O[C@H]1C[C@H](N)[C@@H](O)[C@H](C)O1", "fluorescence change, negative = quenching": "inactive: 0.659%"}, {"smiles": "Cc1ccc(CNc2nc3ccccc3n3cnnc23)cc1", "fluorescence change, negative = quenching": "inactive: -0.908%"}, {"smiles": "Cc1ccc(Cl)cc1N1CCN(C(=O)c2ccc(CS(=O)(=O)c3ccc(Br)cc3)o2)CC1", "Potency": "active: 1000 µM [quencher]"}, {"smiles": "C[C@@H]1CCC2C(C)(C)C3CC21CC[C@@]3(C)O", "note": "(stereo not given in full)", "fluorescence change, negative = quenching": "inactive: 0.132%"}, {"smiles": "COc1cc(NS(=O)(=O)c2ccc3[nH]c4c(c3c2)CCCC4)cc(OC)c1OC", "Potency": "active: 20 µM [quencher]"}, {"smiles": "COC(=O)c1ccccc1NC(=O)c1nc(-c2ccc(Cl)cc2)n2c1CCCCC2", "Potency": "active: 20 µM [quencher]"}, {"smiles": "CCCCC1=CC2=C(c3ccco3)C(=O)C(C)(OC(=O)c3ccc(OC)cc3)C(=O)C2=CN1Cc1ccco1", "note": "(stereo not given)", "fluorescence change, negative = quenching": "inactive: -13.5% [at 11.2 µM]"}, {"smiles": "CC1=C(c2ccc(C(C)C)cc2)S(=O)(=O)N=C1N1CCC(C(=O)NCCc2ccco2)CC1", "Potency": "active: 25.1 µM [quencher]"}, {"smiles": "CCN1C(c2ccccc2)=C(c2ccccc2)S/C1=C/C=C1\\SC(=S)N(C)C1=O", "Potency": "active: 17.8 µM [fluorescent]"}, {"smiles": "CC(=O)OC(COc1ccccc1)Cn1cnc2cc(C)c(C)cc21", "note": "(stereo not given)", "fluorescence change, negative = quenching": "inactive: -0.852%"}, {"smiles": "N=C1/C(=C\\c2ccc(-c3cccc(C(=O)O)c3)o2)C(=O)N=C2SC=C(c3ccccc3)N12", "fluorescence change, negative = quenching": "inactive: -25.7%"}, {"smiles": "CC(=O)O[C@@H]1C(=O)[C@@]2(C)[C@H](O)C[C@H]3OC[C@]3(OC(C)=O)[C@@H]2[C@H](OC(=O)c2ccccc2)[C@@]2(O)C[C@H](OC(=O)[C@@H](O)[C@@H](NC(=O)c3ccccc3)c3ccccc3)C(C)=C1C2(C)C", "note": "(stereo in doubt)", "fluorescence change, negative = quenching": "inactive: -3.02% [at 53 µM]"}, {"smiles": "CC(=O)c1ccc(NC(=O)Cn2c3ncccc3c(=O)n2-c2ccc(C)cc2)cc1", "Potency": "active: 89.1 µM [quencher]"}, {"smiles": "CC(C)CCOc1ccc(C2N=C(N)Nc3nc4ccccc4n32)cc1", "note": "(stereo not given)", "Potency": "active: 39.8 µM [quencher]"}, {"smiles": "Cc1ccc(S(=O)(=O)N2CCC(=O)N(C(COC(=O)Nc3ccccc3)Cc3ccccc3)CC2)cc1", "note": "(stereo not given)", "fluorescence change, negative = quenching": "inactive: -1.01%"}, {"smiles": "CC1CC[C@@]2(C(=O)O)CC[C@]3(C)C(=CCC4[C@@]5(C)CCC(O)C(C)(C)C5CC[C@@]43C)C2C1C", "note": "(stereo not given in full)", "fluorescence change, negative = quenching": "inactive: -4.44%"}, {"smiles": "CC[n+]1ccc(/C=C/c2ccc(N(C)C)cc2)c2ccccc21", "Potency": "active: 31.6 µM [fluorescent]"}, {"smiles": "Cc1cc(NC(=O)Cn2c(=O)nc(-c3ccccc3F)c3cc(Cl)ccc32)ccc1Br", "Potency": "active: 0.0355 µM [quencher]"}, {"smiles": "CN(C)c1ccc(/C=C/C=C2/SC(=S)N(c3ccccc3)C2=O)cc1", "Potency": "active: 3.16 µM [fluorescent]"}, {"smiles": "CCc1ccccc1NC(=O)Cn1c(=O)n(-c2ccc(CC(=O)NCC3CCCO3)cc2)c(=O)c2ccccc21", "note": "(stereo not given)", "fluorescence change, negative = quenching": "inactive: -0.399%"}, {"smiles": "CC(=O)N[C@H](CS)C(=O)O", "fluorescence change, negative = quenching": "inactive: -1.64%"}, {"smiles": "Cn1c(-n2cccc2)c(-c2c(-c3ccccc3)[nH]c3c2c(=O)n(C)c(=O)n3C)c(=O)n(C)c1=O", "Potency": "active: 25100 µM [quencher]"}, {"smiles": "N#C/C(=C\\C1=C(N2CCOCC2)C(=C\\c2ccc(Cl)cc2)/CC1)C(=O)Nc1ccccc1F", "Potency": "active: 50.1 µM [fluorescent]"}, {"smiles": "Cc1ccc(N=Nc2c(O)ccc3ccccc23)c(C)c1", "Potency": "active: 44.7 µM [fluorescent]"}, {"smiles": "COC(=O)c1c(NC(=O)Cc2coc3cc(C)ccc23)sc2c1CCC2", "Potency": "active: 3.55 µM [quencher]"}, {"smiles": "COc1cc(/C=N/NC(=O)C(Cc2c[nH]c3ccccc23)NC(=O)OCC(C)C)cc([N+](=O)[O-])c1O", "note": "(stereo not given)", "fluorescence change, negative = quenching": "inactive: -1.57%"}, {"smiles": "CCCCNC(=O)CSc1nc2cc3c(cc2c(=O)n1CCCC(=O)NCCc1ccc(OC)c(OC)c1)OCO3", "fluorescence change, negative = quenching": "inactive: -0.879%"}, {"smiles": "CCOc1ccc(-c2ccc(/C=C3/C(=N)N4C(C)=CSC4=NC3=O)o2)c([N+](=O)[O-])c1", "Potency": "active: 79.4 µM [quencher]"}, {"smiles": "COc1ccc(COc2cc(-c3cccc(OC)c3)nc3ccc(NC(=O)c4ccccc4)cc23)cc1", "fluorescence change, negative = quenching": "inactive: -2.87%"}, {"smiles": "CC1=C(C#N)C(=O)OC(C)(C)C1", "Potency": "active: 44.7 µM [fluorescent]"}, {"smiles": "CCc1ccc(NC(=O)c2cc(-c3cccs3)on2)cc1", "fluorescence change, negative = quenching": "inactive: -4.37%"}, {"smiles": "CCOC(=O)c1c(NC(=O)/C=C/c2ccc(OC)c(OC)c2)sc(C(C)=O)c1C", "Potency": "active: 562 µM [quencher]"}, {"smiles": "CCN1CC2=C(OC(N)=C(C#N)C2c2ccccc2)/C(=C\\c2ccccc2)C1", "note": "(stereo not given)", "Potency": "active: 44.7 µM [fluorescent]"}, {"smiles": "COc1ccc(/C=C/C(=O)CC(=O)/C=C/c2cccc(O)c2OC)cc1O", "fluorescence change, negative = quenching": "inactive: -25.5%"}, {"smiles": "C[C@@H]1[C@H](O)[C@@H](C)/C=C/C=C/C=C/C=C/C=C/C=C/C=C/[C@H](O[C@@H]2O[C@H](C)[C@@H](O)[C@H](N)[C@@H]2O)C[C@@H]2O[C@](O)(C[C@@H](O)C[C@@H](O)[C@H](O)CC[C@@H](O)C[C@@H](O)CC(=O)O[C@H]1C)C[C@H](O)[C@H]2C(=O)O", "fluorescence change, negative = quenching": "inactive: 1.63%"}, {"smiles": "Cc1ccc(C(=O)NN2C(=O)C3C4c5ccccc5C(c5ccccc54)C3C2=O)cc1", "note": "(stereo not given)", "fluorescence change, negative = quenching": "inactive: -2.78%"}, {"smiles": "CCOC(=O)c1c(S(=O)(=O)NCC(=O)N2CCN(c3cccc(Cl)c3)CC2)c(C)n(C)c1C", "Potency": "active: 0.355 µM [quencher]"}, {"smiles": "NC12CC3CC(CC(C3)C1)C2", "Potency": "inactive"}]}]}
